B1: LC3A_28_1212 (protein)
chain: SPTEEAIKKIKEQFEKAIKSGEPTAIVVEITKEITLEGAKEIMDAIEEEVEKAKDLKGLSIVIDVEEGVSQEVIDLIAERADEIEKKYPNVTVIIALEEE
B2: LC3A_28_708 (protein)
chain: NPLEESIKKALEEAKAAAKAGESTVITIKVPGSATEEDIEKLIKALEEIAEITKDLPSTSIIIDVDGGVKQEHIDKIADAAEEIEKKYPNVTVIIALDET
B3: LC3A_free_8_2553 (protein)
chain: DSQEFANKVSDIIDKAEEEISKVLEEAGVDPIKRLELELGLGEIKAEVVSLSDKSKEEILKATLEGLKEVKKLAEELDEETRKKVLEILDKAEKEIKSLL
B4: LC3A_free_39_2270 (protein)
chain: SPEEKEKALKRLEELKKKLSPEAQKALDEAVELAKDNVELLKVIAEKVEEALEEGADVLRLLKKAVEVLKQGQAAGLSPEELTKAVEEAMREEILLEPID
B5: LC3A_147_437 (protein)
chain: YKAVVDVDILTKNAEEEVLAHFEKIAEELKKQGYKVTLEIDVEKLENGETYIDATITVEAPTEEEAQKAADYIVDSIDELEEKLKDKVLGSIISVEISKL
B6: LC3A_132_263 (protein)
chain: SEELLEEALEELKEIADKIVDALAAGKDPWPYIVELDKKFEEYAEKLSLEETEELADEVLAHFRELAAKRLDPNDPEARRVLDIVEMLFEGVLIEKELKE
B7: LC3A_147_455 (protein)
chain: MLYEIDVDILFRNDPELVEEVEEKLKEIAEKYGGEVEVKREVIQETPTTTEYFLHVKITFEDEEKAKAALDEVDKLIEETAKKHPEKFLGSMISFDKIEK
B8: LC3A_28_1242 (protein)
chain: MEIEEQIERAKREVEEARARGEEALVTLKVGGDAEPEDVDKVIEAMEEIAELGKDLPRLDIIVDVSRGVPQEHIDKLADAGEEIEERYPNVTVIIALEER
B9: LC3A_28_1070 (protein)
chain: SAIDEQLAAALAEAREAAARGEELLVTLTIPADATEEDVEKVLATMEEIAEIAKDLPSVSIIVDVDTPNQEEVTKKVSEKGDELEKKYPHVNVIIALDEE
B10: LC3A_28_1002 (protein)
chain: NEIKKNLEEALKEAKKAKEENKPVVLTIKVSGKATEEDIELIIEKLEEIAEILKDIKGAAIIIDIDGKVKQEFIDKLLEKGEEIEKKYPNVTVIFALDED
B11: LC3A_28_1118 (protein)
chain: SLAEKVIKAFEKQVEAAIASGEETLIEVEVSPELSQEEVEKLAKKMAEYAKKAAEKLKVSVLVSVEKGVSQEKIDIIADEAEKVEEEYPNVNVIIALEEE
B12: LC3A_3_1572 (protein)
chain: MEELIEESLERLREAGFSEEVIEAAREAFEALAEKGLEESIKAVTETLLELKDAPEELLLDLLEDVKELVETDKSSKEELEKKIKELLRVYRNESEIIEL
B13: LC3A_28_1154 (protein)
chain: SANVEAAKKQIDEDAEKDKDEEEVYLNVTITSEDTVEEAKEIMEHVEEVVEKLKDKKKIYVVITFEEPVSQEVLDTVLEKAEEIEKKFPNVSVIIALPED
B14: LC3A_free_39_2285 (protein)
chain: SAAELEKAVAELKKLLDEDPNVTEEEKKIILEFAKKSLEAAKAIVEAVKEIKEAGGDVGEFAKRIAEKIKELEEKGLSLEERAKEVIELARDLKNLIPID
B15: LC3A_3_1666 (protein)
chain: AEERIEEALEFLRAAGKSEETLEAARRALEALAERGYEEALETFIELLRELAGLSDETLLALAEDVLALVETSDLSEEELTARIRELARTARAEEEIIEL
B16: LC3A_28_1216 (protein)
chain: SAIDAELARARAEMAAAKAAGEEALITIRIPATATLADVERAMAALREIVAEVADLPSIDIIIEFEAGVSQEVIDAAADGGEEIEKEFPNVTVIIALDEE
B17: LC3A_6_2061 (protein)
chain: GKLEYTIDILLKPETLEEAKEKSLALIEEAKAKLEAEMAAIGEKVLEFKVELSEDGELITVTVVVENTPEAKAATDAVVDELVERLEPYASAIMESREVL
B18: LC3A_28_1285 (protein)
chain: SEIDKNIEKAIEEAKKAVEEGKSAVITINVPGNATQEEIDKVIEAMKEIAEILKDVPNQAIVVNVDGGVKQEYIDKLADAAEEIEKKYPNVTVIIALDED
B19: LC3A_147_452 (protein)
chain: ATYVITVDVLLRNDPELAERIEEEIKKIGEENGAEVEVEREEIQETPTTTEYFLRVTLKTTDEEKALKALQEVSELLDRTAEEHPESFLGAMISFEKIED

This is an account of results in the supplement of paper PMC12632987.

The full ranking holds about 2,300 sequences; the median of “median log2 fold change of GCK-ALFA target abundance (FLAG IP / Myc IP barcode read proportion)” is about 0.095, and the lowest 2% start at about -0.47. Some of the results follow.

For the assay, the target named is MAP1LC3A, Q9H492. Description: median log2 fold change of GCK-ALFA target abundance (FLAG IP / Myc IP barcode read proportion) (log2 ratio); each designed protein is fused to an ALFA-tag nanobody in HEK293 cells to bring the named protein to FLAG-tagged glucokinase (GCK); Myc marks an untargeted standard; higher = target protein stabilised (more abundant). The note with it: target protein: 3xFLAG-MCP-GCK-ALFA reporter; HEK293 landing pad (RPLP). Put shortly:
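Binders fused to an ALFA nanobody were recombined as a library into HEK293 landing-pad cells, which were induced with 2 μg mL^−1 doxycycline and then transfected to express a FLAG-tagged target and a Myc-tagged standard. After 48 h, circular RNA barcodes recovered by anti-FLAG and anti-Myc immunoprecipitation of lysates were reverse transcribed, amplified and sequenced. Each binder's target abundance is the median log2 ratio of FLAG to Myc barcode read proportions, from barcodes present at ≥10^−7 in both replicates, binders carrying ≥3 barcodes per replicate, a 10^−6 pseudocount and pooled replicates.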
On to B1, for which the “median log2 fold change” value was 0.0938.
In the case of B2, the “median log2 fold change” value is 0.0817.
As to B3, the “median log2 fold change” value amounted to 0.194.
As to B4, the “median log2 fold change” value was 0.216.
To B5 belongs -0.222.
With B6, the “median log2 fold change” value is -0.319.
To B7 belongs 0.263.
For B8, the “median log2 fold change” value is 0.298.
To B9 belongs -0.237; to B10, -0.295; to B11, -0.00261.
Then B12, with 0.0759; and B13, with -0.142.
Regarding B14, the “median log2 fold change” value turned out to be 0.326.
To B15 belongs 0.277.
Then B16, with 0.0879.
To B17 belongs 0.0736; to B18, 0.174; to B19, -0.0647.
